Test results: PubChem BioAssay AID1963576 (National Center for Advancing Translational Sciences (NCATS), 2024)
Screen size: about 46,000 compounds; about 60 (0.1%) were called active. Not shown: some 3% with an inconclusive outcome. Calls follow the shape of the dose curve; as a rule, active = well fitted inhibition curve with a large enough effect; inconclusive = small, poorly fitted or top-dose-only effect; inactive = no such curve, though single readings can be large or run the other way. The list shows a part of the results.

Assay: Primary qHTS assay for Inhibitors of ovarian cancer metastasis using an organotypic tumor microenvironment (TME) model. Also: nearly all actives have a fitted effect of over 65% in size.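 As to activity change, negative = inhibition: plate controls were DMSO wells for no effect and tomatine positive control wells for full effect.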
Conditions: SKOV3ip1-GFP adhesion/invasion on 3D omental model, fluorescence; series mostly up to 45.8 µM; activity change, negative = inhibition: at the top concentration
In short: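 qHTS, 4-pt dose (0.36-46 umol/L); SKOV3ip1-GFP, 1,200 cells/well, no FBS; primary omental fibroblast/mesothelial co-culture 48 h pre-grown; 2 h RT + 16 h 37 C; PBS wash, 4% PFA; GFP count 488/509 nm.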

outcome, inactive:
COc1ccc(CCC(=O)NCCc2csc(-c3ccc(F)cc3)n2)cc1
COc1cc(NC(=O)CC2C(=O)N(c3ccccc3)C(=O)N2Cc2ccc(F)cc2)cc(OC)c1 (stereo unspecified)
CC1CCc2c(sc(NC(=O)Cc3ccccc3)c2C(=O)Nc2ccc(Cl)cc2)C1 (stereo unspecified)
CCCn1c2ccccc2c2cnn(CC(=O)Nc3cc(C)c(Cl)cc3OC)c(=O)c21
COc1ccc(NC(=O)CN2C(=O)CCn3nc(-c4cccn4C)cc32)cc1
COC(=O)c1ccc(Cl)cc1NC(=O)N1CC2CCCN2c2ccccc21 (stereo unspecified)
Cc1cc(Nc2ccccc2F)n2nc(-c3ccccc3)nc2n1
COc1cccc(CNC(=O)C2CCC(CNS(=O)(=O)c3ccc4c(c3)CCCC(=O)N4)CC2)c1 (stereo unspecified)
CCc1ccc(C(=O)c2cn(CC(=O)Nc3ccc4c(c3)OCO4)c3ccc(CC)cc3c2=O)cc1
CC(C)c1nn2c(=O)cc(COC(=O)c3cccc(NC(=O)COc4ccc(F)cc4)c3)nc2s1
Cc1ccc(S(=O)(=O)n2nc(C)c(S(=O)(=O)N3CCCCCC3)c2C)cc1
Cc1ccc(C)c(CSc2nnc3[nH]c(=O)cc(C)n23)c1
CCc1ccc(C(=O)c2cn(CC(=O)Nc3ccc(Cl)cc3)c3cc4c(cc3c2=O)OCO4)cc1
CCOc1ccc(CNC(=O)c2cccc(NC(=O)N3CCSc4ncccc43)c2)cc1OC
CCC(Cn1nnc2ccccc2c1=O)NC(=O)Nc1cc(C)cc(C)c1 (stereo unspecified)
COc1ccc(C2C(C(=O)Nc3ccccc3)=C(C)Nc3c(C(=O)Nc4ccccc4)cnn32)cc1 (stereo unspecified)
COc1ccc(Br)cc1C1C(C(=O)Nc2ccc(C)cc2C)=C(C)Nc2ncnn21 (stereo unspecified)
O=C(NCCc1ccccc1)c1nn(-c2ccccc2F)nc1CO
Cc1cc(C)cc(NC(=O)Cn2c(-c3cncs3)nc3ccccc32)c1
COc1ccc(-n2nc(C(=O)Nc3ccccn3)c3c4ccccc4n(C)c3c2=O)cc1
COc1ccccc1OC(C)C(=O)Nc1cccc(-c2nc3ccccc3s2)c1 (stereo unspecified)
Cc1ccc(Cl)cc1NC(=O)C1CCN(c2nnc(C)c3c(C)n(-c4ccccc4)nc23)CC1
Cc1ccccc1CNC(=O)c1ccc2c(c1)c(C)c(C)n2C
CCCc1cc(=O)[nH]c(SCC(=O)N2CCN(c3ccccc3)CC2)n1
CCOC(=O)c1sc2cccc(F)c2c1S(=O)(=O)NCc1ccccc1Cl
CCCN1CCN(c2ncnc3sc(C(=O)Nc4ccc(C(C)C)cc4)c(C)c23)CC1
O=S(=O)(c1ccc(-c2cc(C(F)(F)F)on2)s1)N1CCN(c2ccccc2F)CC1

Activity change, negative = inhibition, inactive:
CN1C(=O)C(Cc2c[nH]c3ccccc23)NC1=S (stereo unspecified) -14.4%
O=C(Cn1ncc2c([nH]c3ccccc32)c1=O)NCCCN1CCN(c2ccc(F)cc2)CC1 3.23%
CCc1ccccc1NC(=O)N1CCOc2ccccc21 3.25%
COc1ccc(OC)c(NC(=O)CSc2nc(=O)n(CCN(C)C)c3c2CCC3)c1 -7.3%
CCc1ccc(-n2c(=O)c3c4c(sc3n(Cc3ccccc3C#N)c2=O)CCCC4)cc1 2.11%
COc1ccc(S(=O)(=O)NCc2ccc3c(c2)CCN3C(=O)c2ccccc2)cc1OC -9.16%
CCOc1ccc(Nc2oc(-c3ccc(COc4ccc(OC)cc4)o3)nc2C#N)cc1 -16.2%
Cc1ccc(NC(=O)C(=O)NCC(c2cccnc2)N2CCN(Cc3ccccc3)CC2)cc1C (stereo unspecified) 1.06%
COc1ccccc1OCCn1c(NC(=O)c2ccccc2Cl)nc2ccccc21 -30.4%
Cc1cc(C)c(Nc2nc3ccccc3n3c(C)nnc23)c(C)c1 -12%
CCOc1ccc(-c2cc(C(=O)N3CCN(c4cc(Cl)ccc4C)CC3)c3ccccc3n2)cc1 -0.317%
CNc1c(NC(=O)c2ccc(OC)c(OC)c2)c(=O)oc2ccccc12 -20.6%
CCOC(=O)C1=C(CN2CCN(c3ccc(OC)cc3)CC2)NC(=O)NC1c1ccc(OC)cc1 (stereo unspecified) -13.7%
Cc1ccc(Nc2nc3nonc3nc2Nc2cccc(C(F)(F)F)c2)cc1Cl -16%
COc1ccc(NC(=O)Cn2cc(S(=O)(=O)N3CCN(c4ccccc4F)CC3)c3ccccc3c2=O)cc1Cl 6.8%
CCN(CC)CCCNc1oc(/C=C/c2ccc(OC)c(OC)c2)nc1C#N -7.56%
Cc1ccc(NC(=O)CSc2nnc3scc(-c4ccc(Cl)cc4)n23)cc1 2.25%
CCN(CC)C(=O)Cn1c(=O)cc(C)c2c(C)nn(-c3cccc(Cl)c3C)c21 -3.3%
Cc1cc2c(cc1S(=O)(=O)CCC(=O)N1CCC(C)CC1)OCC(=O)N2 4.51%
Cc1cc(C)cc(NC(=O)NCCc2c(C)nn(C)c2C)c1 -0.161%
CN(C)c1nc(Cc2ccc(NC(=O)c3ccc(C(F)(F)F)cc3)cc2)nc(N(C)C)c1CC(=O)O -3.78%
CC(=O)N1CCCc2cc(S(=O)(=O)N3CCCC(C(=O)N4CCN(c5cccc(Cl)c5)CC4)C3)ccc21 (stereo unspecified) -0.159%
CCOc1cc2sc(N3CCC(C(=O)Nc4ccc(CC)cc4)CC3)nc2cc1Br 0.157%
CC(C)C(=O)Nc1nnc2n1CCS2 29.3%
Cc1cc2c(n1-c1ccc(C(=O)NCCc3ccc(Cl)cc3)cc1)CCCC2 -2.39%
CCOC(=O)[C@@H](N)CCC(=O)N[C@@H](CSCc1ccccc1)C(=O)N[C@@H](C(=O)OCC)c1ccccc1 4.33%
Cc1nc(N2CCCC2)c2c(C(=O)N3CCN(c4ccccc4)CC3)c(C)oc2n1 -9.3%
COc1ccc(C)cc1NC(=O)c1noc2c1CSc1ccccc1-2 -0.315%
Cc1ccc(C)c(CSc2nc(-c3ccccc3F)nc3c2Cc2c(CO)cnc(C)c2O3)c1 -3.86%
COCCCNc1nc(NCc2ccccc2OC)c2cnn(C)c2n1 -3.18%
Cc1ccc(C)c(N2CCN(C(=O)c3cn(CC(C)C)c(=O)c4c3c3ccccc3n4C)CC2)c1 -10.6%
Cc1ccc(NC(=O)C2(c3cccs3)CCOCC2)cc1Cl -10.3%
CS(=O)(=O)N1CCc2cc(C(=O)N3CCN(c4cccc(Cl)c4)CC3)ccc21 -27.3%
Cc1ccc(NC(=O)C2(c3ccc4c(c3)OC(F)(F)O4)CC2)nc1-c1cccc(C(=O)O)c1 -6.05%
COCCNC(=O)CCC(=O)NNc1nc2ccccc2c2nc(C)nn12 -8.92%
CCOc1ccccc1NC(=O)c1c(NC(=O)COc2ccc(Cl)cc2)sc2c1CCCCC2 2.52%
Cc1ccc2c(CNCCc3ccccc3)c(C(=O)O)n(Cc3ccccc3C)c2c1 -8.55%
COc1cccc(NC(=O)Cn2nnc(C(=O)NCc3cccs3)c2N)c1 0.49%
COc1ccc(NC(=O)Cn2c(=O)n(-c3cc(C)cc(C)c3)c(=O)c3oc4ccccc4c32)cc1OC -1.43%
CCS(=O)(=O)N1CCCC(C(=O)NCCOC)C1 (stereo unspecified) -11.8%
Cc1ccc(C(=O)c2cn(CC(=O)Nc3ccc(C(C)C)cc3)c3nc(C)ccc3c2=O)cc1 0.731%
Cc1ccc(NC(=O)CSc2nnc(-c3ccc([N+](=O)[O-])cc3)o2)c(C)c1 -0.139%
CCCCCn1c(NCc2ccc(OC)cc2)nc2ccccc21 -0.693%
Cc1ccccc1N1CCN(S(=O)(=O)c2nnc(NC(=O)c3ccc(C(C)C)cc3)s2)CC1 3.93%
COC(=O)Cn1c(=O)c2cccn2c2ccc(F)cc21 -2.84%
COc1cc(NC(=O)c2cc(C3CC3)nc3c2c(C)nn3-c2ccccc2)cc(OC)c1 1.8%
Cc1cccc(N(C)c2nc3ccccc3c3nnc(C)n23)c1 -22.5%
CCOc1ccc(C(=O)Cn2c(=O)n3nc(CCn4nc(C)cc4C)nc3c3cc(OC)c(OC)cc32)cc1 -2.81%
Cc1ccccc1NC(=O)CC(NCc1cccnc1)C(=O)O (stereo unspecified) -21.9%
CCOc1ccc(-c2nc3c(c(SCC(=O)Nc4ccccc4C)n2)Cc2ccccc2O3)cc1 3.37%
Cc1cc(C)n(-c2nc3ccccc3nc2Nc2ccc(N(C)C)cc2)n1 3.76%
CCOC(=O)c1ccc(NC(=O)c2cnc3c(-c4ccc(F)cc4)c(C)nn3c2C)cc1 8.56%
Cc1cc(C)c(Cn2c3ccccc3c3cnn(CC(=O)NCc4cccs4)c(=O)c32)c(C)c1 16.6%
Cc1ccccc1Cn1nnc2c(=O)[nH]c(C3CCN(C(=O)c4ccc(F)cc4)CC3)nc21 9.8%
CCc1ccc(CNC(=O)c2cnc3sc(N4CCCC4)nn3c2=O)cc1 -6.26%
CN(C)c1ccc(CNC(=O)c2ccc(Cn3c(SCc4ccccc4)nc4cccnc43)cc2)cc1 -0.738%
COc1ccc(CNC(=O)c2ccc(-c3nc(CSc4ccccc4)c(C)o3)cc2)cc1OC -5.43%
COc1ccc(CNC(=O)CSCc2nc(-c3ccccc3C)oc2C)cc1 1.94%
CCc1cccc(NC(=O)COC(=O)c2cn(CC)c3nc(C)ccc3c2=O)c1 8.83%
COc1ccc(-c2ccc3c(N)c(C(=O)c4ccc(OC)c(OC)c4)sc3n2)cc1 -5.32%
CCC(C)NC(=O)CCCN1C(=O)CCn2nc(-c3cccn3C)cc21 (stereo unspecified) 3.29%
CCc1ccc(-n2c(=O)c3c4c(sc3n(CC(=O)c3ccc(F)cc3)c2=O)CCC4)cc1 -20.9%
COc1ccccc1C(=O)Nc1ccccc1OCc1cc(=O)n2c(C)csc2n1 7.69%
CC(C)c1nn2c(=O)cc(COC(=O)c3ccc(NC(=O)COc4ccccc4)cc3)nc2s1 0.594%
COc1ccc(-c2cc(-c3ccccc3)c(C#N)c(SCC(O)CS(=O)(=O)Cc3ccc(Cl)cc3)n2)cc1 (stereo unspecified) -1.88%
O=C(CS(=O)(=O)c1cccc2nsnc12)N1CCN(c2cccc(Cl)c2)CC1 -0.239%
CC(=O)Nc1nonc1-c1nnc(SCC(=O)Nc2ccc(C)cc2)n1-c1ccccc1 18.5%
COC(=O)c1ccccc1NC(=O)c1cc(-c2ccccc2O)no1 7.34%
COc1ccc(NC(=O)CN2C(=O)CCn3nc(-c4cccn4C)cc32)cc1Cl -4.97%
